Reference: PubChem BioAssay AID1347073 (National Center for Advancing Translational Sciences (NCATS), 2019)
The campaign covered roughly 45,000 compounds. About 200 (0.44%) were called active. Another 7% or so got no clear call; they are omitted. The call rests on the fitted dose curve; in most records, active means well fitted activation curve with a large enough effect; inconclusive means small, poorly fitted or top-dose-only effect; inactive means no such curve, though single readings can be large or run the other way. The list shows a part of the results.

assay: qHTS of TDP-43 Inhibitors: NCGC Sytravon Library Screen; conditions: yeast TDP-43 toxicity rescue, BacTiter-Glo growth, 24 h; series mostly up to 46.1 µM; growth rescue (activation): at the top concentration; further: 0% is about no effect; nearly all actives have a fitted effect of over 55% in size
In short: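 TDP-43-expressing yeast, pregrown in raffinose, seeded at OD600 0.02 in galactose medium with compound for 24 hr at 30 deg C. Growth read by BacTiter-Glo luminescence, so rescue of toxicity appears as activation.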

SMILES | growth rescue (activation)
C/C(N)=C(/C#N)C(=O)CSc1nnc(Nc2cccc(C)c2C)s1 | inactive: -19.1%
O=C(COc1ccc(Cl)cc1Cl)NN1C(=O)/C(=C\c2ccc(Cl)cc2)SC1=S | inactive: -1.24%
O=C(CSc1c2c(nc3ccccc13)CCC2)N1CCCC1 | inactive: 12.7%
CC1CC1c1ccc(/C=C(\C#N)C(=O)Nc2cc(Cl)ccc2Cl)o1 (stereo not given) | inactive: 7.2%
CC1CCN(CC(=O)Nc2ccccc2Sc2ccccc2)CC1 | inactive: 5.82%
CCOc1ccc(NC(=O)COC(=O)CN2CCCCCC2=O)cc1 | inactive: 4.51%
O=C(NNC(=O)c1cccs1)c1ccc(F)cc1 | inactive: 24.2%
COc1ccc(-n2cc(CNCC3CC(=O)N(C4CC4)C3)c(-c3ccccc3Cl)n2)cc1 (stereo not given) | inactive: 1.04%
CC(=O)Nc1ccc(S(=O)(=O)n2cnc3cc(C)c(C)cc32)cc1 | inactive: 7.66%
O=C(CNc1cc(S(=O)(=O)N2CCOCC2)ccc1N1CCCC1)NCc1ccco1 | inactive: 5.82%
Nc1nonc1C(=O)NCCN=Cc1ccccc1O | inactive: 9.68%
COc1ccc(/C=C/c2cc(C(F)(F)F)on2)cc1 | inactive: -8.18%
CCOC(=O)CC(=O)N/N=C/c1c(N)n(C)c(=O)n(C)c1=O | inactive: 13.8%
c1ccc(-n2cc(CNCCc3cscn3)c(-c3ccc4c(c3)OCO4)n2)cc1 | inactive: 27.2%
CCc1nc2c(OCCC3CCCCC3)cccn2c1N(C)C(=O)COc1ccccc1 | inactive: -2.63%
O=C(CC1C(=O)NCCN1CC1CCCCC1)NCCc1ccc(F)cc1 (stereo not given) | inactive: -2.47%
O=C(C1CCCN1S(=O)(=O)c1ccc(Br)cc1)N1CCOCC1 (stereo not given) | inactive: 6.36%
Cc1cccc(C)c1NC(=O)Cn1nnc(S(=O)(=O)c2ccccc2)c1N | inactive: 4.19%
O=C(CSc1nnc2ccccn12)Nc1ccc2c(c1)OCO2 | inactive: 11.9%
O=C(NCC(=O)N1CCN(c2ccc([N+](=O)[O-])cc2)CC1)c1ccco1 | inactive: -4.86%
N#CC(C#N)=C1C(=O)N(CCN2CCCCC2)c2ccccc21 | inactive: -11%
O=C(Cn1ncc2c1-c1ccccc1OC2)N1CCN(Cc2ccccc2)CC1 | inactive: 22.2%
COc1ccc(CCN2CN(S(=O)(=O)c3ccccc3)c3nc4ccccc4nc32)cc1OC | inactive: 33.9%
COc1ccc(N2C(=O)C(Cl)=C(Nc3ccccc3O)C2=O)cc1 | inactive: 4.24%
Cc1ccc(-n2nc(CN3CCOCC3)c(-c3ccccc3)c2N)cc1Cl | inactive: 15.9%
S=C(NCc1ccco1)N1CCN(c2ccc(Cl)cc2)CC1 | inactive: 0.849%
O=C(NC1CCCC1)C(c1cccs1)N(C(=O)c1csnn1)c1ccccc1F (stereo not given) | inactive: 3.18%

SMILES | growth rescue (activation)
COc1cccc(OC)c1C(=O)Oc1ccc2c(c1)O/C(=C\c1ccncc1)C2=O | inactive: -10.2%
CC1=C/C(=N\S(=O)(=O)c2ccccc2)C(C(C)C)=CC1=O | inactive: -5.88%
CCOC(=O)NC(=O)C(=CNNc1ncc(C(F)(F)F)cc1Cl)C(=O)NC(=O)OCC | inactive: -10.9%
CS(=O)(=O)N(CC(=O)N1CCCC1)Cc1ccc(Cl)cc1 | inactive: -4.53%
CCC(C)NC(=O)C1(NC(=O)Nc2ccccc2)CCCCC1 (stereo not given) | inactive: -5.03%
CC(=O)Nc1cc(NC(C)=O)cc(C(=O)N2CCCC3CCCCC32)c1 (stereo not given) | inactive: 14.3%
COCCNc1nc(Nc2ccc(C(=O)OC)cc2)c2sccc2n1 | inactive: 6.08%
O=C(Nc1nnc([C@@H]2C[C@H](O)[C@@H](CO)O2)s1)Nc1cccc2c1CCCC2 | inactive: 8.51%
CC(=O)c1ccc(N(C)C)cc1 | inactive: -10.6%
CCN(CC)P(=O)(Nc1ccccc1Br)c1ccc(N(C)C)cc1NC(=O)c1ccco1 (stereo not given) | inactive: -2.26%
O=C1NCCN(Cc2ccc(Cl)c(F)c2)C1CC(=O)N1CCc2ccccc2C1 (stereo not given) | inactive: -5.46%
Cc1cc(C)c2c(c1)c1nnc(SCCN3CCCCC3)nc1n2C | inactive: -7.62%
Cc1cc(C)cc(Oc2ccc(-c3nnc(-c4ccccc4)o3)cc2[N+](=O)[O-])c1 | inactive: 9.91%
CCOC(=O)c1sc(NC(=O)CSc2nnnn2-c2ccc(C)c(C)c2)nc1C | inactive: -8.38%
COc1ccc(NC(=S)N(Cc2cccnc2)Cc2cc3cc(OC)c(OC)cc3[nH]c2=O)cc1 | inactive: -4.03%
CSc1ccc(S(=O)(=O)N2CCC(C(=O)NCc3ccco3)CC2)cc1 | inactive: 10.6%
O=C(OCc1cc2ccccc2[nH]c1=O)c1ccncc1 | inactive: 18.6%
Cc1cc(C)c(S(=O)(=O)Nc2ccc(C(N)=O)cc2)c(C)c1 | inactive: 11.7%
Clc1ccc(-c2ccc(C=Nc3ccc(N4CCOCC4)cc3)o2)c(Cl)c1 | inactive: 2.02%
COc1ccc(C(=O)Nc2ccc(NC(=O)C3CCCCC3)nc2)cc1 | inactive: 4.9%
Cc1cccc(NC(=S)N2CCC(NC(=O)c3cccc(F)c3)CC2)c1 | inactive: 5.32%
COc1cccc(CNC(=O)Cn2ncc3c(=O)oc4ccccc4c32)c1 | inactive: 9.61%
C=CCn1c(CNC(=O)c2ccco2)nnc1SCC(=O)c1ccc(OC)cc1 | inactive: 7.54%
CCOc1ccc(NS(=O)(=O)c2ccc(NS(C)(=O)=O)cc2)cc1 | inactive: -6.66%
Cc1ccc(-n2c(SCC(=O)NCCN3C(=O)CSC3=O)nnc2-c2ccccc2)cc1C | inactive: -1.65%
CN1CCN(c2ccc(CNC(=O)C3Cc4c(-c5ccc(Cl)cc5)ccnc4O3)cc2)CC1 (stereo not given) | inactive: -10.8%
O=Cc1ccc(C(=O)OCC(=O)Nc2ccc(F)cc2F)cc1 | inactive: 8.27%

SMILES | growth rescue (activation)
COc1ccc(C2C(C(C)=O)=C(C)Nc3ncnn32)cc1[N+](=O)[O-] (stereo not given) | inactive: -5.42%
CSc1nn(-c2ccc(C(=O)OCC(=O)NC(=O)NC(C)C)cc2)c(=S)s1 | inactive: -6.24%
CCN(Cc1ccccc1)C(=O)COC(=O)CNS(=O)(=O)c1ccc(C)cc1 | inactive: 25.2%
COc1ccc(-n2nc([N+](=O)[O-])c(=NCc3ccco3)n2O)cc1 | inactive: 30.1%
CCN(C(=O)COC(=O)/C(C#N)=C/c1ccc(N(C)C)cc1)C1CCS(=O)(=O)C1 (stereo not given) | inactive: 22%
Cc1ccc(S(=O)(=O)N2CCCCC2)c(C)c1NS(C)(=O)=O | inactive: 1.51%
COc1ccc(C(=O)Nc2nnc(Cc3ccccc3)s2)c(OC)c1 | inactive: -4.82%
CCOC(=O)C1(CC2CC2)CCN(Cc2cn(C)c3ccccc23)CC1 | inactive: 6.67%
O=C(CN1CCOCC1)NNc1c2ccccc2nc2ccccc12 | inactive: 4.99%
CCc1c(C)sc(NC(=O)C2CC2)c1C(=O)OC(C)C | inactive: 5.37%
O=C(CSc1ccccc1F)NC(=O)c1ccccc1Br | inactive: 11.6%
CC(C)c1ccc(/C=N/NC(=O)c2ccccn2)cc1 | inactive: 15.9%
COc1ccc(S(=O)(=O)Nc2ccc(S(=O)(=O)N(C)C)cc2)cc1[N+](=O)[O-] | inactive: -21.7%
C=CCc1cccc2cc(C(=O)NNC(=O)c3ccncc3)c(=O)oc12 | inactive: 2.64%
COc1ccc(C(OCC(O)CNCCc2ccc(S(N)(=O)=O)cc2)c2ccc(OC)cc2)cc1 (stereo not given) | inactive: 16.7%
CCOc1ccc(C(=O)OCC(=O)N2CCOCC2)cc1OCC | inactive: 0.0355%
COc1ccc(S(=O)(=O)N2CCCCC2)cc1NC(=O)c1ccc2c(c1)OCO2 | inactive: 10.7%
CC1(C)CC(=O)C2=C(C1)OC(N)=C(C#N)[C@@H]2c1ccccc1[N+](=O)[O-] | inactive: 13.9%
Cn1c(=O)c2c(ncn2CC(=O)N/N=C/C(Br)=C/c2ccccc2)n(C)c1=O | inactive: 25.8%
CN(C)S(=O)(=O)c1cccc(NC(=O)COc2ccc(S(=O)(=O)N3CCOCC3)cc2Cl)c1 | inactive: -2.6%
COCCNC(=O)/C(=C/c1ccccc1Cl)c1ccccc1 | inactive: 0.805%
COc1cc(C(=O)NNC(=O)Nc2ccc([N+](=O)[O-])cc2)cc(OC)c1OC | inactive: 4.24%
[O-][n+]1c2c(nn1-c1ccc(Cl)c(Cl)c1)-c1nonc1CC2 | inactive: 0.457%
O=C(CC12CC3CC(CC(C3)C1)C2)N/N=C/c1ccc([N+](=O)[O-])o1 | inactive: 5.3%
Cc1ccccc1C(=O)Nc1ccnn1C1CCN(Cc2cnn(C(C)C)c2)CC1 | inactive: -1.41%
O=Cc1ccc(OCc2cn3ccccc3n2)cc1 | inactive: -8.21%
O=C(CCCN1C(=O)/C(=C/c2cccs2)SC1=S)Nc1cccc(C(=O)O)c1 | inactive: -5.81%

SMILES | growth rescue (activation)
CC(NC(=O)Cn1c(=O)oc2cc(S(=O)(=O)N3CCCCCC3)ccc21)c1ccccc1 (stereo not given) | inactive: -1.29%
O=c1cc(-c2ccc3c(c2)OCCO3)oc2ccc(Cl)cc12 | inactive: 18.7%
CC(=O)N(C)c1ccc(NC(=O)C(Sc2ccccc2)c2ccccc2)cc1 (stereo not given) | inactive: 8.25%
CS(=O)(=O)c1cccc(NC(=O)C2CC2)c1 | inactive: 3.45%
Cc1nn(-c2ccccc2)c(Cl)c1/C=N/NC(=O)c1cccc(S(=O)(=O)N2CCCC2)c1 | inactive: -0.561%
CCOC(=O)C1=C(C)N=c2s/c(=C/c3cccc([N+](=O)[O-])c3O)c(=O)n2C1c1ccccc1 (stereo not given) | inactive: -14.9%
O=C(c1cc(-c2ccc(F)cc2)nc2ccccc12)N1CCC1 | inactive: 20%
Cc1nc(Nc2ccc(O)cc2)c2c3c(sc2n1)CCCC3 | inactive: 15.3%
COc1cc(CNCCc2ccccc2)ccc1OCC(N)=O | inactive: -24.4%
CCN(CC)c1ccc2nc3ccccc3[n+](CC)c2c1 | inactive: -54.2%
Cc1ccc2nccc(C(=O)N3CCCC(N4CCN(c5ccc(F)cc5)CC4)C3)c2c1 (stereo not given) | inactive: -2.5%
COc1cccc(CN2CC(C(=O)NC3CCC3)CCC2=O)c1 (stereo not given) | inactive: 1.21%
CCCc1nc2ccccc2n1C(=S)SC | inactive: 10.3%
CC1CCCN(C(=O)C2CCN(S(=O)(=O)c3cccc4nonc34)CC2)C1 (stereo not given) | inactive: 14.5%
COc1ccc(CCNC(=O)C23CCC(C)(C(=O)C2Br)C3(C)C)cc1OC (stereo not given) | inactive: -15.2%
Cc1ccc(C(=O)NNC(=O)CSc2nnc3ccccn23)cc1 | inactive: 5.26%
COc1cc(NC(=O)c2[nH]c(C)c(C(C)=O)c2C)cc(OC)c1OC | inactive: 5.64%
Cc1ccc(NC(=O)COC(=O)/C=C/c2cccs2)cc1 | inactive: -2.94%
CCOc1cc(/C=C(\C#N)C(=O)Nc2cccc(C(=O)O)c2)cc(Br)c1OC(=O)c1ccc(OC)cc1 | inactive: 7.08%
COc1ccc(CC2(CO)CCN(CC3=Cc4cc(Cl)ccc4OC3)CC2)cc1 | inactive: -1.15%
COc1ccccc1N(C(=O)c1ccco1)C(C(=O)NC1CCCCC1)c1cc(OC)c(OC)c(OC)c1 (stereo not given) | inactive: 16.6%
CCC1CC(/C(C)=N/NC(N)=O)OC1=O (stereo not given) | inactive: 13.2%
CCN(CC)S(=O)(=O)c1ccc(N2CCCCC2)c(NC(=O)/C(C#N)=C/c2ccc(OC)cc2)c1 | inactive: 24.2%
COC(=O)c1sc(N)c(C(=O)OC)c1COC(=O)[C@@H](NS(=O)(=O)c1cccc(Cl)c1)C(C)C | inactive: 14.1%
